# Test results taken from the supplement of paper PMC12340641.
# The full ranking holds about 1,000 compounds; the median of “relative growth in counter assay (no AraC = 100%, AraC + DMSO = 0%)” is about -1.1, and the highest 2% start at about 20. The list shows a part of the results.
# System: HEK293FT dCK*-only
# Assay: relative growth in counter assay (no AraC = 100%, AraC + DMSO = 0%); higher = more growth rescue independent of IKZF1
# Settings: compound concentration: 5 uM; AraC concentration: 0.3 uM; overnight pretreatment + 4 days AraC
# Protocol: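 Growth recovery screen of the molecular-glue-like (Specs) library. HEK293FT cells expressing a dCK*-IKZF1 fusion (primary) or dCK* alone (counter) were pretreated overnight with compound at 5 uM, then given 0.3 uM AraC for 4 days. Hoechst nuclei were counted by imaging. Primary: normalised to pomalidomide (100%) and DMSO (0%), mean of 2 replicates. Counter: normalised to no-AraC (100%) and AraC+DMSO (0%), single replicate.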
row,SMILES,relative growth in counter assay
1,COC(=O)C1(c2cccc(Nc3ncc(C)s3)n2)CCN(C(=O)C2CCCCC2)CC1,-4.66%
2,CCCc1cnc(Nc2cccc(C3(C(=O)OC)CCN(C(=O)C4CCCCC4)CC3)n2)s1,-1.2%
3,Cc1cnc(Nc2cccc(C3(C(=O)O)CCN(C(=O)CC(C)(C)C)CC3)n2)s1,-4.6%
